Test results taken from publication PMC9574860, “Chemical Toolkit for PARK7: Potent, Selective, and High-Throughput” (Journal of Medicinal Chemistry, 2022).
Hit rate of the full screen: of about 7,900 compounds, about 400 (5.1%) showed an effect of 50% or more. The list shows a part of the results.

target: Parkinson's disease protein 7 (PARK7/DJ1) (human, UniProt Q99497); test: primary screen, percent inhibition; read as competition with a fluorescent probe by fluorescence polarization; higher = more effect of the substance; settings: 100 µM
Sequence (Q99497 whole entry, looked up, the tested form may be a part): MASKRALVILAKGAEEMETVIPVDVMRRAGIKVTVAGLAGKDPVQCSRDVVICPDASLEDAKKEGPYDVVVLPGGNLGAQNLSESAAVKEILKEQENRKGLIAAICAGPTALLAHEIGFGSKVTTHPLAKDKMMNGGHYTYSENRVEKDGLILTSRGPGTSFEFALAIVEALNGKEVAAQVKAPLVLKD
Method in brief: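 Fluorescence-polarization probe displacement (JYQ-107, 20 nM final, 2 h) after 2 h preincubation of PARK7 (0.2 μM final) with each fragment at 100 μM final. Read-out ex/em 480/520 nm; remaining activity derived from FP signal loss relative to reference controls.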

Structure (SMILES) | Inhibition % [%]
N#Cc1ncccc1O | 23.2
Cc1c(-c2ccccc2)[nH]c(=S)[nH]c1=O | 9.98
CS(=O)(=O)c1ccc(F)c(NC(=O)CCl)c1 | 3.84
N#Cc1ccc(N2CC(O)CC2c2ccc(F)cc2)cn1 (stereo not shown) | 5.17
C#Cc1cccc(NS(=O)(=O)C=Cc2ccccc2)c1 | -2.07
CC(NC(=O)CCl)c1ccco1 (stereo not shown) | 12.3
N#Cc1ccc(OCC2CO2)cc1 (stereo not shown) | 1.24
C=CC(=O)N1Cc2cnn(C)c2C1 | 14.1
CC(C)n1ccc(=O)nc1S | 1.42
C=CC(=O)NC1CCCN(C(=O)OC)C1 (stereo not shown) | 4.18
NC(=O)CCN(C(=O)CCl)c1ccc(F)cc1 | 37.5
CCOC(=O)c1c(NC(=O)CCl)sc2c1CCCC2 | 2.08
N#Cc1[nH]ncc1NS(=O)(=O)c1ccc2c(c1)CCCC2 | 5.98
C=CC(=O)N1CC(C)OC(C(F)(F)F)C1 (stereo not shown) | 14.7
CS(=O)(=O)c1cccnc1C#N | 5.26
CC1CCC(N(C)C(=O)CCl)CC1 (stereo not shown) | 101
O=C(CCl)NCC(=O)Nc1ccc(F)c(F)c1F | 4.68
Cc1cccc(Oc2nccnc2C#N)c1 | 1.62
C=CC(=O)Nc1c(C)ccn2ncnc12 | 6.69
CCC1(NC(=O)c2ccc(C#N)[nH]2)CCC1 | 7.61
O=C(CCl)NCc1ccc(-c2ccc(Cl)cc2)o1 | 18.1
CN(C)C(=O)c1csc(C(=O)CCl)c1 | 67.8
O=C(CCl)NCc1ccc(N2CCCC2)cc1 | 0.611
Cc1cc(C=C(C#N)C(=O)NC(C)C)cc(C)c1O | 4.49
O=C(O)CC1SC(=O)N(c2ccccc2)C1=O (stereo not shown) | 12.3
C=CC(=O)N1CCCCC1c1noc(C)n1 (stereo not shown) | 3.88

Structure (SMILES) | Inhibition % [%]
O=C(CCl)NC(=O)NC1CCS(=O)(=O)C1 (stereo not shown) | 11.9
N#Cc1ccc(Cl)c(Cl)n1 | 5.12
O=C(CCl)NCc1ccccc1CN1CCCC1=O | 1.17
C=CCNC(=O)C(C#N)=Cc1cccc(Cl)c1 | 29.5
Cc1cc(S(=O)(=O)n2cccn2)ccc1Cl | 0.878
Cc1ccc(B2OC(C)(C)C(C)(C)O2)s1 | 2.39
COc1ccc(C2CCCN2C(=O)C2CCC(=O)O2)cc1 (stereo not shown) | 4.79
COc1ccc(C(NC(=O)CCl)C2CC2)cc1 (stereo not shown) | 2.94
CC(C)N(C)C(=O)C1CCN(C(=O)CCl)CC1 | 20.4
COc1ccc(C=C(C#N)C(=O)O)cc1 | 15.2
O=C(CCCl)Nc1ccc(F)c(F)c1 | 2.02
CCCn1ccc(B2OC(C)(C)C(C)(C)O2)n1 | 3.4
O=C(CCl)N1CCc2sccc2C1c1ccccc1 (stereo not shown) | 1.12
C=CC(=O)NCc1cc(C2CC2)ccc1F | 7.51
C=CC(=O)N1CC(c2ccccc2)C1 | 12.4
C=CC(=O)N1CCN(Cc2cn(C)nc2C)CC1 | 14
CCc1cccc(N2C(=O)CN=C2S)c1 | 0.493
O=C(CCl)Nc1nc2ccc(Br)cc2s1 | 3.52
c1cc(C2CC2)cc(C2CO2)c1 (stereo not shown) | 10.8
Cl.O=C(CCl)NCCc1cccc2cccnc12 | 30.3
CC1CC(N2CCCC2c2ccsc2)C(=O)O1 (stereo not shown) | 1.18
N#Cc1nccnc1Sc1cccc(F)c1 | 3.31
O=C(Nc1cccnc1)Oc1ccccc1 | 15.8
CC1CC(N2CCCC(NS(C)(=O)=O)C2)C(=O)O1 (stereo not shown) | 7.71
O=C1CN=C(S)N1c1cccc(Cl)c1 | 2.22
CCOc1cc(C)c(C)cc1S(=O)(=O)n1cnc(C)c1 | 9.34

Structure (SMILES) | Inhibition % [%]
O=C(O)[C@H]1[C@H]2C(=O)OC[C@]23CC[C@H]1O3 (racemic) | 7.05
C=CC(=O)NC1CCCN(c2cccnc2)C1=O (stereo not shown) | 15.4
CC1(C)OB(c2ccc(CC(F)(F)F)cc2)OC1(C)C | 2.89
Cc1ccc(C)c(OCC2CO2)c1 (stereo not shown) | 8.85
N#Cc1coc(C2CCC2)n1 | 7.28
O=C(NCCN1C(=O)CCC1=O)c1ccc2[nH]ccc2c1 | 4.5
Cc1cc(C)c(NC(=O)CCl)c(C)c1 | 6.49
N#Cc1ccc(OCC(F)F)cn1 | 6.74
O=C(O)C=CC(=O)Nc1ccccc1O | 20.6
C=CC(=O)NC1(c2ccc(F)cc2F)CCOCC1 | 6.35
Cc1ccc(C=CS(=O)(=O)NC2CC(=O)N(C)C2)cc1 (stereo not shown) | 12.5
CS(=O)(=O)C(C#N)=Cc1ccc(O)cc1 | 15.2
C=CC(=O)N1CCNC(=O)CC1C (stereo not shown) | 29.8
Cc1cc(C(=O)CCl)c(C)n1CC(F)(F)F | 1.46
Cc1nn(CCCl)c(C)c1C(=O)O | 7.84
C=CC(=O)N1CCN(C(=O)c2ccco2)CC1 | 4.28
C=CC(=O)NC1(C)CCOCC1 | 1.41
N#Cc1nc(-c2ccco2)oc1N1CCNCC1 | 9.97
COC(=O)c1cc(F)cc(B2OC(C)(C)C(C)(C)O2)c1 | 2.89
Clc1ccc(COCC2CO2)cc1 (stereo not shown) | 12.4
C=CC(=O)N[C@@H]1COCC[C@H]1OC (racemic) | 6.51
C=CC(=O)N1CCCC2(CCCOC2)C1 (stereo not shown) | 11.3
Cn1c(=O)oc2ccc(NC(=O)C(C#N)=CC3CC3)cc21 | 9.41
CS(=O)(=O)NCCc1ccc(C(=O)CCl)s1 | 97.6
C=CC(=O)N1CC(C)(C#N)C1 | 2.37
C=CC(=O)N1CCC(c2ncc(C(=O)O)o2)CC1 | 14.8

Structure (SMILES) | Inhibition % [%]
CCC(CNC(=O)CCl)c1ccccc1 (stereo not shown) | 16.6
Cc1cc(OC2CCOC2=O)ccc1N (stereo not shown) | 7.05
C=CC(=O)N1CCCC(n2ccnn2)CC1 (stereo not shown) | 11.9
Cc1ccccc1C(=O)NC1CCN(C(=O)CCl)CC1 | 25.2
Cl.NCCN1C(=O)CSC1=O | 75.6
Cn1ccnc1CN(C#N)c1ccc(F)cc1 | -1.51
C=CC(=O)N1Cc2ccccc2C(C(=O)OC(C)(C)C)C1 (stereo not shown) | 11.5
C=CC(=O)N(Cc1cncs1)C1CCN(C(C)=O)CC1 | 5.13
C=CC(=O)N1CCN(C2CCOC2)CC1 (stereo not shown) | 5.2
C=CC(=O)NCCS(=O)(=O)c1cccs1 | 4.36
C#CCN1CCN(C(=O)CCl)CC1.Cl | 18.8
O=C1NC2C3CCC(C3)C12 (stereo not shown) | 0.71
CC1(C)OB(c2ccnnc2)OC1(C)C | 1.99
Nc1ccc(S(=O)(=O)F)c(F)c1 | 12.3
C=CC(=O)N1CCC(n2cc(C(=O)O)nn2)C1 (stereo not shown) | 10.7
O=C1C[C@H](NS(=O)(=O)c2csc3ccccc23)CO1 | 0.617
N#Cc1nc(OCC2CC2)ccc1Cl | 1.17
COc1ccc(CS)c(OC)c1 | 5.78
C=CC(=O)N1CCOC(c2ccccc2Cl)C1 (stereo not shown) | 5.95
CC1CN(C(=CC#N)c2ccc(F)cc2)CC(C)O1 (stereo not shown) | 11
CS(=O)(=O)OCC1CCCC(F)(F)C1 (stereo not shown) | 10
O=S(=O)(C=Cc1ccccc1)NCc1cccnc1 | 15.5
O=S(=O)(C=Cc1ccccc1)Nc1ccc(F)c(F)c1 | 1.18
CCOc1ccc(C)cc1S(=O)(=O)n1ccnc1C | 3.57
Nc1nnc(SC2CCOC2=O)[nH]1 (stereo not shown) | 1.57
CS(=O)(=O)C(C#N)=Cc1ccccc1 | 5.36

Structure (SMILES) | Inhibition % [%]
Cn1cc(CN2C[C@@H](C(F)(F)F)[C@H](C(N)=O)C2)cc1C#N | 10.7
C=CC(=O)N1CCCc2ccc(S(C)(=O)=O)cc21 | 12.6
CCN(CCO)C(=O)c1ccc2c(=O)[nH]c(S)nc2c1 | 15.7
O=S(=O)(c1ccc(S)nc1)N1CCCC1 | 20.5
C=CC(=O)NCC1=CCCOC1 | 2.71
CC1CN(C(=O)C=Cc2ccnn2C)CC(C)N1.Cl (stereo not shown) | 14.8
N#Cc1ccccc1C=CC(=O)N1CCNC(=O)C1 | 2.94
O=C(O)c1ccc(S(=O)(=O)F)cc1 | 49.1
C=CC(=O)NCC1CC2(CCC2)CO1 (stereo not shown) | 5.74
ClCCCc1nc2ccccc2o1 | 16.4
C=CC(=O)NCC(C)(O)c1ccc(C)o1 (stereo not shown) | 10.5
O=C(CN1C(=O)CCC1=O)Nc1ccccc1C(F)(F)F | 5.37
Cn1c(=O)c(C(=O)CCl)c(N)n(Cc2ccccc2)c1=O | 18.2
C=CC(=O)NCC1CCCSC1 (stereo not shown) | 13.8
Cc1cc(C)cc(NC(=O)CN2CCSC2=O)c1 | 5
COc1cccc(CN(C)C(=O)CCl)c1 | 76.7
C=CC(=O)NC1CCN(CC(F)F)C1 (stereo not shown) | 6.23
CN(C)C=CC(=O)c1ccc(F)cc1 | 4.05
ClCC1Cc2ccccc2O1 (stereo not shown) | 0.61
N#Cc1ccc(NC2CCC(O)CC2)cn1 (stereo not shown) | 5.17
Cc1nc(-c2cccc(NC(=O)CCl)c2)cs1 | 20.6
COc1cccc(C=C(C#N)C(=O)O)c1 | 3.76
N#Cc1cc(N2CC(O)CC2c2cccc(F)c2)ccn1 (stereo not shown) | 12.9
